Reference: patent publication US20200002432A1, “ANTI-CD98 ANTIBODIES AND ANTIBODY DRUG CONJUGATES” (AbbVie Inc., priority 2016, published 2020)

How the values were obtained:
[1] = test system: Molt-4 human acute lymphoblastic leukemia cell line; experiment: Growth inhibition assay, ATPlite 1 step, 72 hours; assay type: cell-based; conditions: Molt-4 cells; for IC50: ATPlite 1 step, read-out: Molt4 IC50; for % Cell Viability at 50 nM: 50 nM ADC
Method: The activities of these ADCs were tested in growth inhibition assays in the Molt-4 human acute lymphoblastic leukemia cell line. Briefly, 5000 Molt-4 cells per well in 96-well plates were treated with ADCs in serial dilution for 72 hours. The number of viable cells was determined by the ATPlite 1 step reagent (PerkinElmer 6016739) as instructed by the manufacturer. Data was analyzed using Graphpad Prism software and IC50 values were reported as the concentration of ADC to achieve 50% inhibition of cell proliferation (Table 27).

[2] = test system: NCI-H146 (human small cell lung cancer) xenograft; experiment: NCI-H146 xenograft tumor growth inhibition in SCID-bg mice; assay type: in vivo, mouse; conditions: single dose 10 mg/kg/day, QD × 1/IP

B1: CD98 (CL-huAb104)-SR (conjugate)
heavy: EVQLVESGGGLVQPGGSLRLSCATSGFTFIDYYMSWVRQAPGKGLEWLGFIRNKAYGYTTEYSASVKGRFTISRDNSKSILYLQMNSLKTEDTAVYYCTRDRPAWFVYWGQGTLVTVSSASTKGPSVFPLAPSSKSTSGGTAALGCLVKDYFPEPVTVSWNSGALTSGVHTFPAVLQSSGLYSLSSVVTVPSSSLGTQTYICNVNHKPSNTKVDKKV[skipping human IgG1 Fc with changes]
light: DIVMTQTPLSLPVTPGEPASISCKSSQSLLYSSNQKNYLAWYLQKPGQSPQLLIYWASTRESGVPDRFSGSGSGTDFTLKISRVEAEDVGVYYCQQYYSYPYTFGGGTKVEIKRTVAAPSVFIFPPSDEQLKSGTASVVCLLNNFYPREAKVQWKVDNALQSGNSQESVTEQDSKDSTYSLSSTLTLSKADYEKHKVYACEVTHQGLSSPVTKSFNRGEC
IC50 [1]: 0.045 nM

B2: CD98 (CL-huAb102)-AAA (conjugate)
heavy: EVQLVESGGGLVQPGGSLRLSCATSGFTFIDYYMSWVRQAPGKGLEWLGFIRNKANRYTTEYSASVKGRFTISRDNSKSILYLQMNSLKTEDTAVYYCTRDRPAWFVYWGQGTLVTVSSASTKGPSVFPLAPSSKSTSGGTAALGCLVKDYFPEPVTVSWNSGALTSGVHTFPAVLQSSGLYSLSSVVTVPSSSLGTQTYICNVNHKPSNTKVDKKV[skipping human IgG1 Fc with changes]
light: DIVMTQTPLSLPVTPGEPASISCKSSQSLLYSSNQKNYLAWYLQKPGQSPQLLIYWASTRESGVPDRFSGSGSGTDFTLKISRVEAEDVGVYYCQQYYSYPYTFGGGTKVEIKRTVAAPSVFIFPPSDEQLKSGTASVVCLLNNFYPREAKVQWKVDNALQSGNSQESVTEQDSKDSTYSLSSTLTLSKADYEKHKVYACEVTHQGLSSPVTKSFNRGEC
TGImax (%) [2]: 69%

B3: CD98 (CL-huAb102)-KZ (conjugate)
heavy: EVQLVESGGGLVQPGGSLRLSCATSGFTFIDYYMSWVRQAPGKGLEWLGFIRNKANRYTTEYSASVKGRFTISRDNSKSILYLQMNSLKTEDTAVYYCTRDRPAWFVYWGQGTLVTVSSASTKGPSVFPLAPSSKSTSGGTAALGCLVKDYFPEPVTVSWNSGALTSGVHTFPAVLQSSGLYSLSSVVTVPSSSLGTQTYICNVNHKPSNTKVDKKV[skipping human IgG1 Fc with changes]
light: DIVMTQTPLSLPVTPGEPASISCKSSQSLLYSSNQKNYLAWYLQKPGQSPQLLIYWASTRESGVPDRFSGSGSGTDFTLKISRVEAEDVGVYYCQQYYSYPYTFGGGTKVEIKRTVAAPSVFIFPPSDEQLKSGTASVVCLLNNFYPREAKVQWKVDNALQSGNSQESVTEQDSKDSTYSLSSTLTLSKADYEKHKVYACEVTHQGLSSPVTKSFNRGEC
% Cell Viability at 50 nM [1]: 20.7% and 16.2%

B4: CD98 (CL-huAb104)-KZ (conjugate)
heavy: EVQLVESGGGLVQPGGSLRLSCATSGFTFIDYYMSWVRQAPGKGLEWLGFIRNKAYGYTTEYSASVKGRFTISRDNSKSILYLQMNSLKTEDTAVYYCTRDRPAWFVYWGQGTLVTVSSASTKGPSVFPLAPSSKSTSGGTAALGCLVKDYFPEPVTVSWNSGALTSGVHTFPAVLQSSGLYSLSSVVTVPSSSLGTQTYICNVNHKPSNTKVDKKV[skipping human IgG1 Fc with changes]
light: DIVMTQTPLSLPVTPGEPASISCKSSQSLLYSSNQKNYLAWYLQKPGQSPQLLIYWASTRESGVPDRFSGSGSGTDFTLKISRVEAEDVGVYYCQQYYSYPYTFGGGTKVEIKRTVAAPSVFIFPPSDEQLKSGTASVVCLLNNFYPREAKVQWKVDNALQSGNSQESVTEQDSKDSTYSLSSTLTLSKADYEKHKVYACEVTHQGLSSPVTKSFNRGEC
% Cell Viability at 50 nM [1]: 21.2%
IC50 [1]: 0.089 nM

B5: CD98 (CL-huAb104)-YG (conjugate)
heavy: EVQLVESGGGLVQPGGSLRLSCATSGFTFIDYYMSWVRQAPGKGLEWLGFIRNKAYGYTTEYSASVKGRFTISRDNSKSILYLQMNSLKTEDTAVYYCTRDRPAWFVYWGQGTLVTVSSASTKGPSVFPLAPSSKSTSGGTAALGCLVKDYFPEPVTVSWNSGALTSGVHTFPAVLQSSGLYSLSSVVTVPSSSLGTQTYICNVNHKPSNTKVDKKV[skipping human IgG1 Fc with changes]
light: DIVMTQTPLSLPVTPGEPASISCKSSQSLLYSSNQKNYLAWYLQKPGQSPQLLIYWASTRESGVPDRFSGSGSGTDFTLKISRVEAEDVGVYYCQQYYSYPYTFGGGTKVEIKRTVAAPSVFIFPPSDEQLKSGTASVVCLLNNFYPREAKVQWKVDNALQSGNSQESVTEQDSKDSTYSLSSTLTLSKADYEKHKVYACEVTHQGLSSPVTKSFNRGEC
% Cell Viability at 50 nM [1]: 25.3%
IC50 [1]: 2.67 nM

B6: CD98 (CL-huAb110)-SR (conjugate)
heavy: EVQLVQSGAEVKKPGASVKVSCKASGFTFSDYTMAWVRQAPGQGLEWVATIIYDARGTYYRDAVKGRFTITRDNSTSTLYLELSSLRSEDTAVYYCARQSDDTYYYWGYFDYWGQGTMVTVSSASTKGPSVFPLAPSSKSTSGGTAALGCLVKDYFPEPVTVSWNSGALTSGVHTFPAVLQSSGLYSLSSVVTVPSSSLGTQTYICNVNHKPSNTKVDKKV[skipping human IgG1 Fc with changes]
light: DIVMTQTPLSLPVTPGEPASINCKSSQSLLFSGNQKNYLAWYLQKPGQSPQLLIYWASTRQSGVPDRFSGSGSGTDFTLKISRVEAEDVGIYYCQQYYSSPYTFGQGTKLEIKRTVAAPSVFIFPPSDEQLKSGTASVVCLLNNFYPREAKVQWKVDNALQSGNSQESVTEQDSKDSTYSLSSTLTLSKADYEKHKVYACEVTHQGLSSPVTKSFNRGEC
% Cell Viability at 50 nM [1]: 11.0%
IC50 [1]: 0.332 nM

B7: CD98 (CL-huAb102)-YG (conjugate)
heavy: EVQLVESGGGLVQPGGSLRLSCATSGFTFIDYYMSWVRQAPGKGLEWLGFIRNKANRYTTEYSASVKGRFTISRDNSKSILYLQMNSLKTEDTAVYYCTRDRPAWFVYWGQGTLVTVSSASTKGPSVFPLAPSSKSTSGGTAALGCLVKDYFPEPVTVSWNSGALTSGVHTFPAVLQSSGLYSLSSVVTVPSSSLGTQTYICNVNHKPSNTKVDKKV[skipping human IgG1 Fc with changes]
light: DIVMTQTPLSLPVTPGEPASISCKSSQSLLYSSNQKNYLAWYLQKPGQSPQLLIYWASTRESGVPDRFSGSGSGTDFTLKISRVEAEDVGVYYCQQYYSYPYTFGGGTKVEIKRTVAAPSVFIFPPSDEQLKSGTASVVCLLNNFYPREAKVQWKVDNALQSGNSQESVTEQDSKDSTYSLSSTLTLSKADYEKHKVYACEVTHQGLSSPVTKSFNRGEC
% Cell Viability at 50 nM [1]: 31.9%
IC50 [1]: 1.21 nM

B8: CD98 (CL-huAb110)-YG (conjugate)
heavy: EVQLVQSGAEVKKPGASVKVSCKASGFTFSDYTMAWVRQAPGQGLEWVATIIYDARGTYYRDAVKGRFTITRDNSTSTLYLELSSLRSEDTAVYYCARQSDDTYYYWGYFDYWGQGTMVTVSSASTKGPSVFPLAPSSKSTSGGTAALGCLVKDYFPEPVTVSWNSGALTSGVHTFPAVLQSSGLYSLSSVVTVPSSSLGTQTYICNVNHKPSNTKVDKKV[skipping human IgG1 Fc with changes]
light: DIVMTQTPLSLPVTPGEPASINCKSSQSLLFSGNQKNYLAWYLQKPGQSPQLLIYWASTRQSGVPDRFSGSGSGTDFTLKISRVEAEDVGIYYCQQYYSSPYTFGQGTKLEIKRTVAAPSVFIFPPSDEQLKSGTASVVCLLNNFYPREAKVQWKVDNALQSGNSQESVTEQDSKDSTYSLSSTLTLSKADYEKHKVYACEVTHQGLSSPVTKSFNRGEC
% Cell Viability at 50 nM [1]: 10.0%
IC50 [1]: 0.493 nM

“And” between values parts separate entries of the source, which are not always exact repeats. Equal values may be shown once.
